From PubChem BioAssay AID588453 (National Center for Advancing Translational Sciences (NCATS), 2011)
Screen size: about 390,000 compounds; about 4,000 (1%) were called active. The shares of active, inactive and inconclusive entries below differ from those in the screen. The call rests on the fitted dose curve; in most records, active means well fitted inhibition curve with a large enough effect; inconclusive means small, poorly fitted or top-dose-only effect; inactive means no such curve, though single readings can be large or run the other way. Potencies beside an inconclusive call are fits to weak or partial responses and may not hold up.
Further: nearly all actives have a fitted effect of over 65% in size.
On the % scale 0 is the no-effect control and ±100 the full control effect; potency means the concentration at half of the fitted maximal effect; tags describe the fitted curve by direction and shape.

What follows are compounds tested against Thioredoxin reductase 1, cytoplasmic (Rattus norvegicus) (UniProt O89049) (assay: qHTS Assay for Inhibitors of Mammalian Selenoprotein Thioredoxin Reductase 1 (TrxR1): qHTS). Conditions: recombinant rTrxR1, NADPH fluorescence consumption, selenite substrate; series mostly up to 114 µM; activity change, negative = inhibition: at the top concentration.
Sequence of UniProt O89049 (O89049 whole entry, looked up): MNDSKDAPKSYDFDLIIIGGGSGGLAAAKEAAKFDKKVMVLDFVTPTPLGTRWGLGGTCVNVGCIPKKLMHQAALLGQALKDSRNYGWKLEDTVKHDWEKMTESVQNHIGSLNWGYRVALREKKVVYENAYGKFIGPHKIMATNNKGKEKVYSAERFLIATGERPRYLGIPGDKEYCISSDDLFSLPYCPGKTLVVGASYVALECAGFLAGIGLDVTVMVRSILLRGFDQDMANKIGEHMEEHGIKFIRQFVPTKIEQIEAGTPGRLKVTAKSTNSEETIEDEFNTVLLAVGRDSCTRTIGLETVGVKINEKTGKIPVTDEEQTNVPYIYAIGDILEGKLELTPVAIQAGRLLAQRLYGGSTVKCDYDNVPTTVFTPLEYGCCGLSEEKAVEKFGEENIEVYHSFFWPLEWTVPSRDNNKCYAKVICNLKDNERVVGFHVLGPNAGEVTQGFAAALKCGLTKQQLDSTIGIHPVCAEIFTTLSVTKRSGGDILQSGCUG
Method in brief: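 Rat TrxR1 (90 nM in the dispensed reagent) was pre-reduced with 400 uM NADPH for 5 min at room temperature, then incubated with compound for 15 min. After 400 uM selenite was added, NADPH fluorescence (Ex 340/Em 450 nm) was followed for 8 min.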
With CC(C)C[C@H](N)c1nnc(S(=O)(=O)Cc2cccc(F)c2)o1 the Potency was active: 0.631 µM.
With COc1ccc(OC)c(NC(=O)c2nc(S(=O)(=O)Cc3ccccc3F)ncc2Cl)c1 the Potency was inconclusive: 3.16 µM [inhibitor, full curve].
In the case of Cc1ccc(NC(=O)Cn2nnc(C(=O)NCCc3ccccc3)c2N)c(C)c1, the “activity change, negative = inhibition” value is reported as inactive: 15%.
In the case of O=C(Cc1ccc(Cl)cc1)NC(=S)Nc1ccccc1N1CCOCC1, the Potency is reported as inconclusive: 12.6 µM [inhibitor, partial curve, poor fit].
For CCCC1=Nc2cc(C(=O)NCC(C)c3ccccc3)ccc2Sc2ccccc21 (stereo unspecified), the “activity change, negative = inhibition” value was inactive: 15.6%.
With Nc1cc(S(=O)(=O)N2CCOCC2)ccc1N1CCCCC1 the “activity change, negative = inhibition” value was inactive: -21.7% [at 57.1 µM].
With COc1ccccc1NC(c1cccnc1)c1ccc2cccnc2c1O (stereo unspecified) the Potency was active: 0.708 µM.
In the case of CN1C2=CC=CC=CC2=[N+](C)C12C=CC(=[N+]([O-])[O-])C=C2[N+](=O)[O-] (stereo unspecified), the Potency is reported as inconclusive: 22.4 µM [inhibitor, single point].
For CCCC1C(=O)N2C(N(C)C)=Nc3ccc(C)cc3N2C1=O (stereo unspecified), the Potency was inconclusive: 70.8 µM [inhibitor, single point].
Cn1c(CN2CCOCC2)nnc1SCC(=O)NCCc1ccccc1 was tested, and the Potency was inconclusive: 50.1 µM [inhibitor, partial curve, poor fit].
CCOC(=O)C(C(=O)OCC)c1cc(Br)c2noc3c2c1C(=O)c1ccccc1-3 was tested, and the Potency was inconclusive: 1.12 µM [inhibitor, full curve].
In the case of C[N+]1(CC(=O)c2ccc(I)cc2)CCOCC1, the “activity change, negative = inhibition” value is reported as inactive: -13.8% [at 57.1 µM].
With CCCN1CCN(C(=O)c2cc(COc3ccc4ncccc4c3)on2)CC1 the “activity change, negative = inhibition” value was inactive: -1.84%.
CC(C)C[C@@H](CNCC(=O)[C@H](CC(=O)O)NC(=O)c1[nH]cnc1C(=O)N[C@H](CN)CC(C)C)NC(=O)c1nc[nH]c1C(=O)N[C@@H](Cc1ccccc1)C(=O)O was tested, and the Potency was inconclusive: 70.8 µM [inhibitor, single point].
For O=C(c1ccc([N+](=O)[O-])s1)N1CCN(c2ccccc2)CC1, the Potency was inconclusive: 44.7 µM [inhibitor, partial curve, poor fit].
CCCCN(C)C(=O)c1nc2ccccn2c1CNCCCn1nnc2ccccc21 was tested, and the Potency was inconclusive: 70.8 µM [inhibitor, single point].
With Cc1cccc(NC(=S)NNC(=O)Cc2ccccc2)c1 the Potency was inconclusive: 10 µM [inhibitor, full curve].
With COc1cc(C2CC(=O)N3CN(Cc4ccccc4)CSC3=C2C#N)ccc1OCc1ccccc1 (stereo unspecified) the Potency was inconclusive: 12.6 µM [inhibitor, partial curve].
For CCCCCCOc1ccc(C(CC(=O)O)C(N)=O)cc1 (stereo unspecified), the “activity change, negative = inhibition” value was inactive: -14.4%.
CC1(C)C(c2ccco2)=[N+]([O-])C2(CCCCC2=O)N1O (stereo unspecified) was tested, and the Potency was inconclusive: 20 µM [inhibitor, single point].
With N#C/C(=C/c1ccc(-c2ccccc2[N+](=O)[O-])o1)C(N)=O the Potency was inconclusive: 35.5 µM [inhibitor, partial curve, poor fit].
For COc1ccc(S(=O)(=O)/N=C2/NC(=O)/C(=C\c3ccco3)S2)cc1, the Potency was inconclusive: 70.8 µM [inhibitor, single point].
With O=C(N/N=C\c1ccc([N+](=O)[O-])o1)C1COc2ccccc2O1 (stereo unspecified) the Potency was inconclusive: 25.1 µM [inhibitor, single point].
CCOc1ccc(C2=C(C(=O)CC)Sc3nncn3N2C(=O)CC)cc1 was tested, and the Potency was inconclusive: 28.2 µM [inhibitor, partial curve, poor fit].
With COc1ccccc1N1C(=N)S/C(=C\c2ccc(-c3ccccc3C(=O)O)o2)C1=O the Potency was inconclusive: 50.1 µM [inhibitor, partial curve, poor fit].
For Cc1cc(=O)oc2cc(NS(=O)(=O)c3ccc(F)cc3)ccc12, the Potency was inconclusive: 35.5 µM [inhibitor, single point].
COc1ccc(NC(=O)/C(Cl)=C(/Cl)S(=O)Cc2ccccc2)cn1 (stereo unspecified) was tested, and the Potency was inconclusive: 0.0708 µM [inhibitor, full curve, poor fit].
In the case of O=C(C1=C(O)C(=O)N(c2nc3ccc(Cl)cc3s2)C1c1ccco1)c1ccco1 (stereo unspecified), the Potency is reported as inconclusive: 89.1 µM [inhibitor, single point].
COc1ccccc1NC(=S)NC(=O)C(C)C was tested, and the Potency was inconclusive: 15.8 µM [inhibitor, full curve].
C#CCOCCOCCOCCNc1nc(N2CCN(C(=O)CCCCCCCCCCNC(=O)Cn3cc(CCCCCN)nn3)CC2)nc(N2CCN(C(=O)CCCCCCCCCCNC(=O)[C@@H]([C@H](C)O)n3cc(C)nn3)CC2)n1 was tested, and the Potency was inconclusive: 89.1 µM [inhibitor, partial curve, poor fit].
CCOc1ccc(C(=O)/C=C/Nc2ccc(S(=O)(=O)Nc3onc(C)c3C)cc2)cc1 was tested, and the Potency was inconclusive: 79.4 µM [inhibitor, partial curve].
For O=C(Nc1nnc(SCC(=O)N2CCOCC2)s1)c1ccccc1Cl, the “activity change, negative = inhibition” value was inactive: 4.83%.
With Clc1ccc(-n2nnc(-c3cccnc3Cl)n2)cn1 the Potency was inconclusive: 39.8 µM [inhibitor, partial curve, poor fit].
In the case of COc1ccc(C(=S)N2CCOCC2)cc1OC(=O)c1ccccc1, the “activity change, negative = inhibition” value is reported as inactive: 18.2%.
With COC(=O)c1cc(OC)c(OC)cc1NC(=S)Nc1cccc(C(C)=O)c1 the Potency was inconclusive: 11.2 µM [inhibitor, partial curve].
With CCC(CO)Oc1cc(NCc2ccc(C)cc2)c2ncn(C(C)C)c2c1 (stereo unspecified) the Potency was inconclusive: 11.2 µM [inhibitor, partial curve, poor fit].
CCc1ccc(NC(=O)Cn2c(=O)ccc3cc(S(=O)(=O)N4CCCC4)ccc32)cc1 was tested, and the “activity change, negative = inhibition” value was inactive: 16.8% [at 57.1 µM].
With CCOC(=O)CSC1=NN2CCS(=O)(=O)N=C2S1 the Potency was inconclusive: 28.2 µM [inhibitor, single point].
With CC(=O)Oc1cc(O)c2c(=O)c(OC(C)=O)c(-c3ccc(OC(C)=O)c(OC(C)=O)c3)oc2c1 the Potency was inconclusive: 79.4 µM [inhibitor, partial curve, poor fit].
For COc1cc2c(-c3ccc4cc[nH]c4c3)c(-c3ccsc3)oc(=O)c2cc1OC, the “activity change, negative = inhibition” value was inactive: 22.8% [at 57.1 µM].
In the case of COc1ccc(NC(=O)/C(Cl)=C(/Cl)S(=O)Cc2ccc(Cl)cc2)cn1 (stereo unspecified), the Potency is reported as inconclusive: 0.1 µM [inhibitor, full curve, poor fit].
